Test results published in PubChem BioAssay AID686979 (National Center for Advancing Translational Sciences (NCATS), 2013).
Out of some 420,000 compounds screened, about 50,000 (12%) were called active. The shares of active, inactive and inconclusive entries below differ from those in the screen. Calls come from the whole dose curve; as a rule, active = well fitted inhibition curve with a large enough effect; inconclusive = small, poorly fitted or top-dose-only effect; inactive = flat fitted curve, though single readings scatter. Potencies of inconclusive entries are left out as doubtful fits.

assay: qHTS for Inhibitors of human tyrosyl-DNA phosphodiesterase 1 (TDP1): qHTS in cells in presence of CPT; conditions: chicken DT40 Tdp1-/-;hTDP1 cells + 20 nM CPT, ATP luminescence, 48 h; series mostly up to 46.2 µM; note: nearly all actives have a fitted effect of over 55% in size
Outline: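 Chicken DT40 Tdp1-/- cells complemented with human TDP1, 400 cells/well, exposed to compounds plus 20 nM camptothecin for at least 48 h at 37 C; viability read as ATP content by CellTiter-Glo luminescence.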
Potency is the fitted concentration of half-maximal effect; tags give direction and shape of the fitted curve.

**Q.** For O=C(Nc1cccnc1)c1ccc(-c2ccccc2)cc1, which Potency is on record?
**A.** inactive

**Q.** Which Potency does the source give for CCCCN1C=C(C(=O)c2ccccc2)C(=O)CC1 here?
**A.** inactive

**Q.** Which Potency does the source give for O=C(CCNC(=O)N1CCn2c1nc1ccccc12)NCc1ccc(F)cc1 here?
**A.** inactive

**Q.** For COc1ccc(Cl)cc1NC(=O)Cc1ccc(NC(=O)N2CCCCc3ccccc32)cc1, which Potency is on record?
**A.** active: 18.4 µM

**Q.** With O=C(CSc1ncnc2sc3c(c12)CCCC3)c1ccccc1 as the compound, how does the Potency read?
**A.** active: 29.1 µM

**Q.** For CN1CCC(N(C)C(=O)c2cc(-c3ccc(F)cc3)nc3ccccc23)CC1, which Potency is on record?
**A.** inconclusive [inhibitor, single point]

**Q.** For COc1ccccc1/C=C/c1nc2ccccc2n1C(C)C, which Potency is on record?
**A.** active: 18.4 µM

**Q.** With COc1ccccc1CN(C)CC(=O)NC(=O)NC1CCCCC1 as the compound, how does the Potency read?
**A.** inconclusive [inhibitor, single point]

**Q.** Which Potency does the source give for Cc1cnc(CNC(=O)c2ccc3oc(C(C)C)nc3c2)[nH]1 here?
**A.** inactive

**Q.** Which Potency does the source give for COc1ccccc1NC(=O)C(=O)NCC(c1ccc2c(c1)OCO2)N1CCOCC1 (configuration not stated) here?
**A.** inconclusive [inhibitor, single point]

**Q.** With Cc1onc(-c2ccccc2Cl)c1C(=O)Nc1cccc2cccnc12 as the compound, how does the Potency read?
**A.** active: 9.2 µM

**Q.** With Cc1ccc(O)c(NC(=S)NC(=O)Cc2ccc(Cl)cc2)c1 as the compound, how does the Potency read?
**A.** inconclusive [inhibitor, single point]

**Q.** Which Potency does the source give for Cc1ccc(NCC(=O)N2CCN(S(=O)(=O)c3ccccc3)CC2)cc1F here?
**A.** inactive

**Q.** For O=C(CC(Sc1ccccc1)c1cccs1)c1ccco1 (configuration not stated), which Potency is on record?
**A.** active: 18.4 µM

**Q.** For Cc1onc(-c2ccccc2)c1C(=O)OCc1nnc(-c2ccc([N+](=O)[O-])cc2)o1, which Potency is on record?
**A.** inconclusive [inhibitor, single point]

**Q.** With CCN(CC(=O)NCc1cccs1)C(=O)CCOc1ccccc1C as the compound, how does the Potency read?
**A.** inconclusive [inhibitor, single point]

**Q.** For COc1ccc(/C=N/NC(=O)c2c(-c3ccccc3)noc2C)cc1, which Potency is on record?
**A.** inactive

**Q.** For Cc1cccc(N/C=C(\[N+](=O)[O-])S(=O)(=O)c2ccccc2)c1, which Potency is on record?
**A.** inconclusive [inhibitor, single point]

**Q.** Which Potency does the source give for CCOC(=O)c1c(NC(=O)c2ccncc2)sc(C)c1C here?
**A.** inconclusive [inhibitor, single point]

**Q.** With O=C(OCc1cn([C@H]2CN(CC3CCCCC3)[C@@H](c3ccccc3)C[C@@H]2O)nn1)c1ccccc1 as the compound, how does the Potency read?
**A.** inconclusive [inhibitor, single point]

**Q.** With CCC(C)(C)n1nnnc1C(c1ccc(O)cc1)N1CCc2ccccc2C1 (configuration not stated) as the compound, how does the Potency read?
**A.** inactive

**Q.** Which Potency does the source give for COc1ccccc1NC(=O)c1cnc(SCC(=O)NCC2CCCO2)n(C)c1=O (configuration not stated) here?
**A.** active: 10.3 µM
